B1: chr2:119839360:119839361:+_ENSMUSG00000033902_ENSMUST00000066058|mus_hu|FALSE|FALSE (ssRNA)
RNA: GGGAGUUCUACAGUCCGACGAUCGCCAUCAGCACAGCCACAGAAGAUGUAGUCUUGGCUCACAGAGAUGCAGUGGGCCACUGUGGUCCUCAGCUCCACCCACUUGUCCAAAAGCCUUCGAUCACUGAACUCGCACAGCAGCCCCAACAGAGGAUUGAGCAUCA
B2: chr9:139297273:139297274:-_ENSG00000165689_ENST00000371725|hu_mus|FALSE|FALSE (ssRNA)
RNA: GGGAGUUCUACAGUCCGACGAUCGGUGGCAGGUAGAGCGUCUCAAGAGUCCACCUCAUCUUUAACUUCACUAAUUCUGUCGAUAGACUUGAGGAUUUCAGCAACAAGGUUCAGUGUGUCUGCCCCAGACACCAGCUGCUUUAUCAACAGAGGAUUGAGCAUCA
B3: chr5:132424114:132424115:+_ENSG00000170606_ENST00000304858|hu_hu|FALSE|FALSE (ssRNA)
RNA: GGGAGUUCUACAGUCCGACGAUCACCGAAAAAUUUGCUGAUCUUCUCUUUUACCGCAGGGAUUCGUGUAGCACCACCAACUAUCUCCACUGCAUAAAUAUCUUCUUUCUUUAACUUGGUUUGUUCCAAAACACUACGAAGUGGCAACAGAGGAUUGAGCAUCA
B4: chr11:32953859:32953860:+_ENSG00000060749_ENST00000399302|hu_mus|FALSE|FALSE (ssRNA)
RNA: GGGAGUUCUACAGUCCGACGAUCAUCUCGAACUGAACUACAGGAUAAAGACGACUGCCUGGAUGGUUCCUGAAAAUUACCAAUACUUGCACUUGAUAGGUAGCUAUGUAAGGGAUGCUGUGAACCAGUCAGUUGUGCCUGAAUCAACAGAGGAUUGAGCAUCA
B5: chr5:43291141:43291142:-_ENSG00000112972_ENST00000433297|hu_hu|FALSE|FALSE (ssRNA)
RNA: GGGAGUUCUACAGUCCGACGAUCGUCAUCCAGGCUCCAUGUCAGUCACAUAAAAAUUUACAUAACAUGUAAUCCUUUAAAAUUAUCCCCAGAUAUCCCAUUCCUCCAACUGUUCCCAUACCCCCACCCCAUGCCCACCCCACCCAACAGAGGAUUGAGCAUCA
B6: chr2:160855017:160855018:-_ENSMUSG00000057133_ENSMUST00000039782|mus_hu|motif|central (ssRNA)
RNA: GGGAGUUCUACAGUCCGACGAUCAUCCUUUUCGAGCUCUUCCAUUGUGGCCCAUUUACAAUGUAAGUAGGAAAAAUUUCGGUACUUAACGUAGAACAGCUCCAAGUCGAACGGAGGUUCUCCUGGGUGAACCUCCUGGACAGUCAACAGAGGAUUGAGCAUCA
B7: chr3:179287964:179287965:+_ENSG00000136518_ENST00000429709|hu_hu|hu_hu_hu_mus_True|28_48 (ssRNA)
RNA: GGGAGUUCUACAGUCCGACGAUCCUUGAGUGGUGAGAUGGCCUCCAUGUUCUCCCUGGGCACGCGGAGGGCAUUGGUGUCUAUGUAGUAGGUGGGACCGCCCUGCUUGCCUUUAUCACCAUCAAUCUCCAUCAUUGUACUUCCCAACAGAGGAUUGAGCAUCA
B8: chrX:20248820:20248821:+_ENSMUSG00000001924_ENSMUST00000001989|mus_mus|mus_mus_mus_hu_True|8_78 (ssRNA)
RNA: GGGAGUUCUACAGUCCGACGAUCGGCGAAGUCCGUCACCACAAAGUCAGGUUCUGCCAGUGAUGCUACCAAGGAUUUAAAGCUAAUCUUCUUAGGUACUUUGACCUGACUGACGAUGCCUCCACGGAUGUAGUCAGAGAAGUUCAACAGAGGAUUGAGCAUCA
B9: chr5:122941739:122941740:-_ENSMUSG00000029467_ENSMUST00000031423|mus_mus|motif|central (ssRNA)
RNA: GGGAGUUCUACAGUCCGACGAUCUCUUUCCUGCCACACACCCACGAUUGCAUUGGCUACCAAGAUAAGCAGAAUUACAAACGGCUCGGCAAAGGCUGUAAUCGUUUCUUCCCCUUCCUCGAACCAAGCCAAAACGAAAGAUAUCAACAGAGGAUUGAGCAUCA
B10: chr5:61681977:61681978:+_ENSG00000068796_ENST00000381103|hu_mus|motif|central (ssRNA)
RNA: GGGAGUUCUACAGUCCGACGAUCCACUGUCACAGACUUUAGUUCCGUUCAAUUGAUAUGGCACAUCCUGCAAAAUUAACGGGUCACACACAAAAAAAUGUCUCAAAUACAGUAAAAAUGUACACACAGUAAAGGUAAUUUACACAACAGAGGAUUGAGCAUCA
B11: chr14:66974463:66974464:+_ENSMUSG00000022044_ENSMUST00000074523|mus_hu|mus_mus_mus_hu_False|18_78 (ssRNA)
RNA: GGGAGUUCUACAGUCCGACGAUCUUGUAGGACGACUUAUUCAGGGGAUCGGCCAGGAAGCAAGAGCAGAACAAGGACACCAGCGGGAGCUCCUUCAUCUUCUCUUUGUAGGCAGCAAGAGUCAUGUUUCUGGGAUCUGGUGGCCAACAGAGGAUUGAGCAUCA
B12: chr2:219525992:219525993:+_ENSG00000074582_ENST00000359273|hu_hu|FALSE|FALSE (ssRNA)
RNA: GGGAGUUCUACAGUCCGACGAUCAAUCCAUUUCCCCCGAUACCAGAUAAAAUGGUUUCCAGGGCUGGGGACAAAUUCAAACUUAGUGGAAAUGCGGCCACUCUCAUGCUGAAGGUACGAAGUCUCGACACUGAGGUGCUGAGUCAACAGAGGAUUGAGCAUCA
B13: chr6:40197388:40197389:+_ENSMUSG00000057716_ENSMUST00000061740|mus_mus|mus_mus_mus_hu_False|18_88 (ssRNA)
RNA: GGGAGUUCUACAGUCCGACGAUCGAGACACUGGGGUGGAUUUAUUCUCAGUUUGGGUGGGUGCUAGCCACUAAGACUGUUAUUUUGGGAUUCAUGGCCUUGAAUAUCAAGAGGGAAGGGACGAGAAUGGAAAGAGUCAAGAGUCAACAGAGGAUUGAGCAUCA
B14: chr3:193353255:193353256:+_ENSG00000198836_ENST00000392438|hu_mus|FALSE|FALSE (ssRNA)
RNA: GGGAGUUCUACAGUCCGACGAUCAAUCAAAGAUUUCUUGAGCUUCCUGUGGUGGAUGCCUUUGUCGUCCUUCUGCAGCACCAGCUUCCGCAGCUCUUUGUUCUCCUUUUCCAGGCGCUCCAAGAUCCUCUGAUACUUUAACUGCAACAGAGGAUUGAGCAUCA

Experimental findings from paper PMC12136788 are described below.

This is one part of the list.

The experiment deals with T1, UNK ZnF1-3 (human, UniProt Q9C0B0 31-174).
T1 sequence: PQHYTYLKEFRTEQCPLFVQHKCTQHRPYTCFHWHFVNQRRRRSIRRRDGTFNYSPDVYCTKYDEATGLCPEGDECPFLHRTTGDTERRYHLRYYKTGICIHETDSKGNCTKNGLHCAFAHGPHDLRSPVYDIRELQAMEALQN
In words: nsRBNS (natural sequence RNA bind-n-seq); RBNS binding buffer (assumed for nsRBNS): 25 mM Tris pH 7.5, 150 mM KCl, 3 mM MgCl2, 0.01% Triton X-100, 500 ug/ml BSA, 20 U/ml SUPERase-In, 4 C; UNK is unkempt and MSI1 is Musashi-1; names of the RNAs are library labels; protein concentration not given here; high values mean tight binding.
Molecule B1 yielded a binding signal of 1.21 enrichment R.

Turning to B2, the binding signal was determined as 1.43 enrichment R.

Consider B3, for which the binding signal came out at 0.919 enrichment R.

With B4, the binding signal amounted to 0.822 enrichment R.

B5 had a binding signal of 1.52 enrichment R.

As for B6, the binding signal was determined as 0.589 enrichment R.

B7 displayed a binding signal of 0.63 enrichment R.

In turn, B8 gave a binding signal of 1.02 enrichment R.

In the case of B9, the binding signal is 1.35 enrichment R.

B10: the binding signal was determined as 1.34 enrichment R.

As to B11, the binding signal was 2.12 enrichment R.

In turn, B12 gave a binding signal of 1.11 enrichment R.

Regarding B13, the binding signal is 1.62 enrichment R.

In turn, B14 returned a binding signal of 0.512 enrichment R.
